Consider 1 molecule from PMC6932820, “Identification of viral SIM-SUMO2-interaction inhibitors for treating primary effusion lymphoma” (PLoS Pathogens, 2019).

In the assay the target is T1, GST-LANA1-329(N) (Kaposi's sarcoma-associated herpesvirus …, UniProt Q9QR71 1-329).
T1 construct: latency-associated nuclear antigen (LANA) of KSHV, encoded by ORF73, residues 1-329; also called GST-LANA-N (WT); source: E. coli BL21 (DE3), purified on beads
T1 sequence: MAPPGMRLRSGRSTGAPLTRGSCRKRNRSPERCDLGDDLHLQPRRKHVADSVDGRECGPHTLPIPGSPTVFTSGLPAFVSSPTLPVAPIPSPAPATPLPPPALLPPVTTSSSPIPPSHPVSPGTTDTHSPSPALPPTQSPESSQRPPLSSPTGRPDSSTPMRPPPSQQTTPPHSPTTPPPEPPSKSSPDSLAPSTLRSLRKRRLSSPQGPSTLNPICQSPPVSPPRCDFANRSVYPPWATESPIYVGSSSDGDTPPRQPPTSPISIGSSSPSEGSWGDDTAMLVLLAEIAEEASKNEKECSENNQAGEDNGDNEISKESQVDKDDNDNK
The assay can be described thus: pull-down; purified His-SUMO2 incubated with GST-LANA-N (WT or QTA) on glutathione-sepharose beads in NETN binding buffer (50 mM Tris-HCl pH 7.5, 100 mM NaCl) at 4°C; untreated, DMSO or different dosages of Cambogin; immunoblot. Conditions: both partners purified. (Immunoblotting shows a protein as a band on a membrane.)

B1: His-SUMO2 (natural protein)
chain: not shown
notes: SUMO2; also called purified His-SUMO2; source: E. coli BL21 (DE3), purified on beads
With B1, the binding result was “binds”.
